Results as given in PubChem BioAssay AID230 (DTP/NCI, 2004).
Toxic doses and inconclusive results are not listed. Not every entry of the source has a single result; some have several. The list is limited to them. The source may hold further records. Values that stand side by side differ for a reason that is not stated; they may come from other doses, times, organisms or constructs than stated.

System: C3H/He mice, Gardner lymphosarcoma 6C3HED ip, survival T/C
Test: NCI In Vivo Anticancer Drug Screen. Data for tumor model Lymphosarcoma Gardner 6C3HED (intraperitoneal) in C3H/He mice
Details: endpoint: median survival time, schedule: Q01DX009 (ip), vehicle: sodium bicarbonate, higher = longer survival
Method: The antitumor activity of compounds was measured in mice bearing transplantable tumors. Survival or tumor size were measured and the results are expressed as the measurement made in the treated group (T) divided by the measurement made in the vehicle treated control group (C). The tumor model used in this assay is Lymphosarcoma Gardner 6C3HED (intraperitoneal) in C3H/He mice

## CN(Cc1cnc2nc(N)nc(N)c2n1)c1ccc(C(=O)N[C@@H](CCC(=O)O)C(=O)O)cc1
dose: 0.5 mg/kg/injection
  T/C: 108 % of control and 173 % of control
dose: 1.0 mg/kg/injection
  T/C: 90 % of control, 200 % of control, 307 % of control
